Measured values published in ChEMBL document CHEMBL4888484, “Replenishing the malaria drug discovery pipeline: Screening and hit evaluation of the MMV Hit Generation Library 1 (HGL1) against asexual blood stage Plasmodium falciparum ,using a nano luciferase reporter read-out” (2022).
Hit rate of the full screen: of about 4,800 compounds, about 410 (8.5%) showed an effect of 50% or more. The list shows a part of the results.

system: Plasmodium falciparum; experiment: Confirmatory screen in NF54 pLDH assay, in single point, at 2uM, 72h; type: functional, Erythrocyte; settings: timepoint 72 hour

Row | SMILES | % Inhibition [%]
1 | CC(NCC(O)Cn1c(-c2ccccc2)c(-c2ccccc2)c2ccc3ccccc3c21)c1ccccc1 (centres undefined) | 86
2 | O=C(Cn1cccn1)Nc1cccc(S(=O)(=O)N2CCCC2)c1 | -8
3 | COc1ccc(Cl)cc1CNC[C@H](C)O | 4
4 | CCC(CC)C(=O)Nc1cc(C2CC2)nn1-c1nc(-c2ccccc2)cc(=O)[nH]1 | 45
5 | CCc1ccc(NC(=O)Cc2c(C)nc3nc(-c4ccccc4C)nn3c2C)cc1 | 3
6 | CC[C@H](C)[C@H](NC(=O)c1ccc(Br)c(F)c1)C(=O)O | 1
7 | Cn1c(-c2ccc3c(c2)OCO3)cnc1NCc1cccc(Cl)c1 | 3
8 | N#Cc1cccc(CNCC2(N3CCOCC3)CCCCC2)c1 | -4
9 | O=C(c1cccc(C(F)(F)F)c1)c1c[nH]c(C(=O)NCc2cccnc2)c1 | -26
10 | CC1(O)CC2CCC(C1)N2C(=O)c1cc(Br)c2c(c1)OCCO2 (centres undefined) | -17
11 | N#C[C@@H](C(=O)Nc1cccnc1)c1ccc(F)cn1 | -2
12 | O=C(c1coc(-c2ccccc2)n1)N1CCc2cc(Br)ccc21 | 1
13 | CC(C)[C@H](NC(=O)Nc1cc(Cl)ccc1F)C(N)=O | -8
14 | CCOC(=O)NCC#CCOc1ccccc1C(N)=O | -18
15 | Cc1cc2n(n1)C(C(F)(F)F)CCN2C(=O)C(C)N1C(=O)C2CCCCC2C1=O (centres undefined) | 4
16 | CC[C@H](C)n1ncc(C(=O)N2CCNCC2)c1C1CC1 | -8
17 | COc1ccccc1CNC(=O)c1cnn2c3c(cnc12)CCCC3 | -2
18 | CCCn1nnc(N(C(=O)c2cc(Br)cc(C)c2OC)C(=O)c2cc(Br)cc(C)c2OC)n1 | 0
19 | Cn1nc(C2CC2)c2c(C(F)F)cc(C(F)F)nc21 | 11
20 | Cc1csc(NC(=O)[C@]2(C)Oc3ccccc3NC2=O)n1 | 15
21 | O=C(Nc1ccncc1)c1nc(N2CCCC2)ncc1Br | -9
22 | Cc1ccc(CNC2CCN(C)CC2)c(OCc2ccco2)c1 | 3
23 | Cc1ccc(NC(=O)[C@H]2CN(S(=O)(=O)C3CC3)CC23CCCCC3)c(C)c1 | 10
24 | Cc1onc(N)c1S(=O)(=O)Nc1ccncc1 | -2
25 | C[C@@](CO)(NC(=O)Nc1cc(-c2ccco2)ccc1F)C1CC1 | 10
26 | Cc1cccc(C(=O)Nc2ccc(N3CCCCCC3)cc2C(=O)O)c1 | -10
27 | Cc1cc(=O)n(CC(=O)Nc2ccc(Cl)c(C(F)(F)F)c2)c(-c2ccc(F)cc2)n1 | 0
28 | O=C1COc2ccc(S(=O)(=O)N3CC[C@H]3c3ccccc3)cc2N1 | -1
29 | C[C@@H](CNS(=O)(=O)c1ccco1)N(C)S(=O)(=O)c1ccco1 | 4
